# The whole screen tested about 310,000 compounds, of which about 2,200 (0.71%) showed an effect of 50% or more. Effects have a minus sign here. This is one part of the list.
# Biological target: human ether-à-go-go-related gene (hERG) potassium channel (human, UniProt Q12809)
# Experiment: primary screen, population patch clamp on CHO cells stably expressing hERG
# Sequence of human ether-à-go-go-related gene (hERG) potassium channel (Q12809 whole entry, looked up): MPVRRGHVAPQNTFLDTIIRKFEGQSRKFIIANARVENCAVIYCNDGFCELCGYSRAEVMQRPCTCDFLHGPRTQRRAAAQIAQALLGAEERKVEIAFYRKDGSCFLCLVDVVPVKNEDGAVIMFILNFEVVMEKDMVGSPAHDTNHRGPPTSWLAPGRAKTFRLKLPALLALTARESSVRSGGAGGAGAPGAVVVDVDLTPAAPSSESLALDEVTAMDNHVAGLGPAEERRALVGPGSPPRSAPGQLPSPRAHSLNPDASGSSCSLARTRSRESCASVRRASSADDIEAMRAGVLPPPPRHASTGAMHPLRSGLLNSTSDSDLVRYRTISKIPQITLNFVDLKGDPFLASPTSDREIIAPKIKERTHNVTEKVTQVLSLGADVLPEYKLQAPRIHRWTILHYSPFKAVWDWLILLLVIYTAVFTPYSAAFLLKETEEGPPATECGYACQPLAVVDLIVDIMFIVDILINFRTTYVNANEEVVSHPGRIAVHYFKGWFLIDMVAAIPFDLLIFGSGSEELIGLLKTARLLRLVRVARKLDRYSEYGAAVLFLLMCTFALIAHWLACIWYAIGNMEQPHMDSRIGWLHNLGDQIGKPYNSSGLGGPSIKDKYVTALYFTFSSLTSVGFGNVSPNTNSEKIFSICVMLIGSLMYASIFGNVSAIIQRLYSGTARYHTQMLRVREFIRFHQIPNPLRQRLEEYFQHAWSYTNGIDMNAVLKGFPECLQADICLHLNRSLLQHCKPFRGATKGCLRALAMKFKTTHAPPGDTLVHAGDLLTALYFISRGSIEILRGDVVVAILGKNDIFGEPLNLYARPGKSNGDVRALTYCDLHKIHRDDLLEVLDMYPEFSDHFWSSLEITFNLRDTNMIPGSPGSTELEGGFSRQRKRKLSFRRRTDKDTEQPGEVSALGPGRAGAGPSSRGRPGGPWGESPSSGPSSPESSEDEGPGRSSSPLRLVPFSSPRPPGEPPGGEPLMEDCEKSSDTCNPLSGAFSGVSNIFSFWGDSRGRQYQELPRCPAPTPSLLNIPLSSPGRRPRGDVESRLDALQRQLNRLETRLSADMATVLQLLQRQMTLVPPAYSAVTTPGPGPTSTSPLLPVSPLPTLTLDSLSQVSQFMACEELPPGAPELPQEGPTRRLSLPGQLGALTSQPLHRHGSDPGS
row,Structure (SMILES),"hERG current change (%, negative = inhibition) at 1uM [%]"
1,Nc1nc(-c2ccc(Cl)cc2)cc(C(F)(F)F)n1,8.68
2,COc1ccccc1C(=O)NCCC(=O)NCCCSc1ccccc1,2.39
3,Cc1ccc(S(=O)(=O)N2CCN(C(=O)N3CCOCC3)CC2)cc1C,5.1
4,S=C1NC2CCCCC2N1 (stereo not drawn),16.5
5,CCOC(=O)C1C(=O)CC(C)(O)C(C(=O)OCC)C1c1ccc(N(CC)CC)cc1 (stereo not drawn),13.3
6,Cc1cc(N=Nc2ccccc2)c(NCC(O)C(O)C(O)CO)cc1C (stereo not drawn),7.55
7,N/C(Cc1ccc([N+](=O)[O-])cc1)=N\OC(=O)Cc1ccccc1,-6.85
8,Cc1ccc(C2CC(c3ccc(Br)cc3)=NN2C(=O)CSC2=NN3CCCC(=O)N=C3S2)cc1 (stereo not drawn),15.8
9,COc1ccc2c(CC(=O)Nc3ccc(N4CCOCC4)cc3)coc2c1,8.67
10,Cc1cccc(NC(=O)CSc2nnc([C@@H](N)Cc3c[nH]c4ccccc34)o2)c1C.Cl,1.52
11,COc1ccccc1N(Cc1cc(=O)[nH]c2ccccc12)C(C)=O,13.8
12,CS(=O)(=O)N1CCC(c2noc(-c3ccc(C(F)(F)F)cc3)n2)CC1,6.26
13,Cc1ccc(NC(=O)NNC(=O)c2snnc2C)cc1,3.35
14,CCCCC1(Cc2cccc([N+](=O)[O-])c2)C(=O)N(c2ccccc2)N(c2ccccc2)C1=O,13.7
15,CCOc1ccccc1N1CCN(C(=O)c2ccccc2)CC1,12.6
16,CC(=O)N1SC(N)=NC1c1ccccc1 (stereo not drawn),0.475
17,O=C(COc1ccc(Cl)cc1Cl)Nc1ccc(CN2CCOCC2)cc1,10.8
18,CC(=O)Cn1cnc2c(cnn2-c2ccc(C)c(C)c2)c1=O,7.47
19,CCc1ccc(S(=O)(=O)Nc2cc3c(cc2N2CCOCC2)n(C)c(=O)c(=O)n3C)cc1,0.298
20,O=C(CC1S/C(=N/N=C/c2cccs2)NC1=O)Nc1ccc(Cl)c(Cl)c1 (stereo not drawn),11.9
21,CN(CCN1CCOCC1)Cc1nc(-c2ccccc2)no1,2.84
22,CC(=O)NC(=S)Nc1ccccc1F,12.4

row,Structure (SMILES),"hERG current change (%, negative = inhibition) at 1uM [%]"
1,CCOc1ccc(S(=O)(=O)N2CCCCC2)cc1NC(=O)Cc1cccs1,9.9
2,CCN(CC)c1ccc(NC(=O)CN2C(=O)NC3(CCc4ccccc43)C2=O)cc1 (stereo not drawn),4.96
3,Cc1ccc(CN2CCN(C/C(Cl)=C/c3ccccc3)CC2CCO)o1 (stereo not drawn),7.23
4,NNC(=S)NCc1ccco1,12.5
5,Cc1ccc(/C=C2\SC(=S)N(CCC(=O)NNC(=O)c3ccccc3O)C2=O)cc1,7.29
6,CC(C)[C@H](NC(=O)[C@H](Cc1ccccc1)n1c(=O)[nH]c2ccccc2c1=O)C(=O)N1CCC[C@@H]1C(=O)O,9.63
7,COc1ccc(/C=C/c2nnc(NC(=O)CSc3ccc(Cl)cc3)s2)cc1,2.18
8,Cc1cc(C)nc(N(C#N)Cc2ccc(Br)cc2)n1,20.7
9,O=C1N/C(=N\N=C\c2ccco2)SC1Cc1ccccc1[N+](=O)[O-] (stereo not drawn),7.2
10,Cc1ccccc1NC(=O)NCC1CCN(Cc2cccc(Cl)c2)CC1,-20.1
11,Cc1ccc(C(C(=O)NC(C)(C)C)N(CC2CCCO2)C(=O)c2csnn2)cc1 (stereo not drawn),-1.23
12,N#Cc1ccc(N2Cc3ccccc3/C2=N/C(=O)Nc2ccc(Cl)cc2)cc1,1.36
13,c1ccc(OCCCn2ccnc2)cc1,16.4
14,CCCCOc1ccc(N(CC(=O)NC(C)C)C(=O)CCC(=O)Nc2ccccn2)cc1,17.1
15,Cc1ccc(C(=O)Nc2ccc3c(c2)C(=O)N(C)C3=O)c(C)c1,7.33
16,CCCN1CCN(S(=O)(=O)c2ccc3c(c2)NC(=O)C(C)C(=O)N3)CC1 (stereo not drawn),9.95
17,CC(NS(=O)(=O)/C=C/c1ccccc1)C(=O)O (stereo not drawn),12.5
18,O=C(NC(=S)Nc1ccccc1N1CCCC1)c1ccccc1[N+](=O)[O-],15.7
19,N#CC(c1ccc(Cl)cc1)c1ccc(Cl)nn1 (stereo not drawn),10.9
20,COc1c(C)cc(Br)cc1C(=O)Nc1ccc(C)cc1[N+](=O)[O-],24.9
21,Cc1ccccc1NC(=O)c1ccc(S(=O)(=O)C(F)F)cc1,-0.555
22,COc1ccc(CC(=O)N2CCc3cc(OC)c(OC)cc3C2)cc1,-10.1

row,Structure (SMILES),"hERG current change (%, negative = inhibition) at 1uM [%]"
1,COc1ccc(C(=O)N2CC=C(c3ccccc3)CC2)cc1S(=O)(=O)N1CCOCC1,5.5
2,Cc1ccc(-c2[nH]nc3c2C(c2cccnc2)C(C#N)=C(N)O3)cc1 (stereo not drawn),9.23
3,COc1ccc(CC(=O)Nc2ccccc2N2CCCC2)cc1OC,4.24
4,CCCc1nnc(NC(=O)CCC(=O)N2CCC(Cc3ccccc3)CC2)s1,2.63
5,Cc1ccc2c(CN3CCN(CCO)CC3)cc(=O)oc2c1,-52.1
6,CCc1cc2c(NCCC(=O)O)ncnc2s1,8.78
7,COc1cc2c(cc1OC)-c1nncn1C(C)(C)C2,5.38
8,COc1cc(OC)c(C(=O)O/N=C(\N)c2ccccn2)cc1OC,14.7
9,CCOC(=O)c1ccc(-n2ccnc2)c(NC(=O)c2ccc(Cl)cc2)c1,-44.6
10,COc1cc(/C=C/C(=O)OCC(=O)N(C)C2CCS(=O)(=O)C2)ccc1OC(F)F (stereo not drawn),7.09
11,Cc1cccnc1NC(=O)Cn1nc(-c2ccccc2)oc1=S,4.63
12,CCN(CC)S(=O)(=O)c1ccc2c(c1)nc(SCC(=O)N1CCCCCC1)n2-c1ccc(OC)cc1,11.9
13,COC(=O)C(NC(C)=O)(Nc1ccccc1)C(=O)OC,15.2
14,CC(C)(C)NC(=O)NC(=O)CN1C(=O)NC(C)(c2ccccc2)C1=O (stereo not drawn),14.3
15,CCC(N)C12CC3CC(CC(O)(C3)C1)C2.Cl (stereo not drawn),7.25
16,CCc1ccc2nc3sc(C(=O)N4CCc5ccccc54)c(N)c3cc2c1,7.82
17,Cc1cc(CN(C)C(=O)c2ccc(OC3CCN(S(=O)(=O)N(C)C)CC3)cc2)n[nH]1,5.84
18,O=C(NNc1nc2ccccc2s1)Nc1ccc(Cl)c(Cl)c1,36.3
19,Cc1ccc(C(=O)NC(C)C2CC3CCC2C3)c(C)c1 (stereo not drawn),12
20,O=C(COc1ccccc1)NC(NC(=S)Nc1ccccc1C(=O)O)C(Cl)(Cl)Cl (stereo not drawn),12.1
21,Cc1ccccc1C(=O)Nc1ccc2c(c1)nc(CCNC(=O)c1ccco1)n2C,1.04
22,CCC(C)Nc1nc2c(c(=O)[nH]c(=O)n2C)n1CCCc1ccccc1 (stereo not drawn),7.59

row,Structure (SMILES),"hERG current change (%, negative = inhibition) at 1uM [%]"
1,C=CCn1c(O)c(N=NC(=O)OCC)c2ccccc21,8.98
2,COc1ccc(N(C(=O)c2snc(C(N)=O)c2N)C(C(=O)NC2CCCCC2)c2ccc(F)cc2)c(OC)c1 (stereo not drawn),4.02
3,CC1(c2ccc([N+](=O)[O-])cc2)NC(=O)N(CC(=O)c2ccc3c(c2)OCO3)C1=O (stereo not drawn),2.7
4,CCn1c2ccccc2c2cc(/C=N/NC(=O)c3ccc(O)cc3)ccc21,-0.487
5,Cc1ccccc1C(=O)NC(CC(C)C)C(=O)NN1C(=O)c2ccccc2C1=O (stereo not drawn),16.6
6,CCOc1ccc(NC(=O)CCc2nnc3ccc(N4CCN(C)CC4)nn23)cc1,14.8
7,COC(=O)COc1ccc(S(=O)(=O)N2CCOCC2)cc1C,0.607
8,Cc1ccc(CNC(=O)CN2CCCC(C)C2)cc1 (stereo not drawn),-0.491
9,O=C(COC(=O)[C@H](Cc1ccccc1)NC(=O)c1cccs1)Nc1ccccc1C(F)(F)F,5.58
10,O=C(NN=C1CCN(Cc2ccccc2)CC1)C(O)c1ccccc1 (stereo not drawn),3.77
11,CCNC(=O)CC1C(=O)N(c2ccc(OC)cc2)C(=O)N1CCOC (stereo not drawn),10.1
12,CC(=NCc1cccnc1)c1c(O)n(-c2ccc(C)cc2)c(=O)[nH]c1=O,-0.929
13,Cn1c(=O)oc2cc(S(=O)(=O)NCc3ccc(F)cc3)ccc21,-14.6
14,O=C(NCC1CCN(c2ccc(S(=O)(=O)N3CCOCC3)cc2)CC1)c1cccc(Cl)c1,12.3
15,COc1ccc(-c2nc(CS(=O)CC(=O)NC3CCCc4ccccc43)c(C)o2)cc1OC (stereo not drawn),9.45
16,CC(C)OC(=O)c1cn(-c2ccccc2)nc1-c1ccco1,11.7
17,Cc1ccc2occ(C(c3nnnn3C3CCCC3)N3CCN(C(=O)c4ccco4)CC3)c(=O)c2c1 (stereo not drawn),1.05
18,CCCCOP(=O)(OCCCC)C(O)c1ccc(F)cc1 (stereo not drawn),10
19,COc1ccc(CCN2C(=O)C3C4CC(C5C(C(=O)N/N=C\c6ccc(Cl)cc6)=NOC45)C3C2=O)cc1OC (stereo not drawn),-12.8
20,Cn1c(SCc2nc(-c3ccccc3)no2)nnc1-c1cccs1,3.52
21,CC(C)(C)C(=O)OCCn1c(=O)c2cc3c(=O)n(CCOC(=O)C(C)(C)C)c(=O)c3cc2c1=O,18

# From publication PMC4336329 (PLoS ONE, 2015)
